Results on 77 compounds are retold here after PMC12040169 (PLOS Biology, 2025).

This is one part of the list.

This experiment deals with T1, C. trachomatis L2/434/Bu expressing GFP (CTL2-GFP).
T1 construct: L2/434/Bu GFP intracellular growth in HeLa cells
Also noted: species or system HeLa; C. trachomatis total inclusion area by high-content imaging, normalised to DMSO. To be noted: total inclusion area; 28.5 h, 10 µM; inhibitor. The procedure, abridged: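 Post-fluorescence-read fixation, DNA staining with Hoechst and high-content imaging; GFP inclusion area and number per well, and nuclei counts, used as proxies for bacterial growth and host viability.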
Turning to `c1coc(CNc2nc(-c3ccoc3)cn3ccnc23)c1` [CBK066610], the “% of control remaining” value amounted to 77.8694.

Take `Cc1ccc(S(=O)(=O)c2ccc(C)c(S(=O)(=O)N3CCOCC3)c2)cc1S(=O)(=O)N1CCOCC1` [CBK261677]: the “% of control remaining” value was 101.981.

With `COc1ccc(Oc2nccnc2N2CCN(Cc3ccc(Cl)cc3)CC2)cc1OC` [CBK083041T], the “% of control remaining” value is on record as 66.9492.

For the compound `CC(C)=NNC(=O)CSc1nc(N2CCOCC2)c2ccccc2n1` [CBK009114], the “% of control remaining” value is recorded as 98.4995.

For the compound `CC(=O)NC[C@H]1CN(c2ccc(-c3nnc([C@@H](C)N)s3)c(F)c2)C(=O)O1` [CBK017966], the “% of control remaining” value is given as 0.08965.

As for `COCCn1cnnc1C(C)NC(=O)Cn1cc2ccccc2n1` (centres unmarked) [CBK307047], the “% of control remaining” value is on record as 86.7817.

Turning to `O=S(=O)(c1ccccc1)C1C2C=CC(COC3CCCCO3)(O2)C1S(=O)(=O)c1ccccc1` (centres unmarked) [CBK020045], the “% of control remaining” value turned out to be 96.6169.

As to `COc1ccc([C@@]23CC[C@@H](NC(=O)Nc4ccc(Cl)nc4)C[C@@H]2N(C)CC3)cc1OC` [CBK045764], the “% of control remaining” value is recorded as 72.9245.

On to `Cc1cc(O)nc(C(C)N2CCCN(CC(F)(F)F)CC2)n1` (centres unmarked) [CBK305491], for which the “% of control remaining” value came to 98.5837.

On to `O=C(Nc1cc(N2CCCS2(=O)=O)ccc1F)c1n[nH]c2ccccc12` [CBK304216], for which the “% of control remaining” value is recorded as 34.5869.

For the compound `COc1ccc(C(=O)C2=C(O)C(=O)N(CCN3CCNCC3)C2c2ccccc2F)cc1` (centres unmarked) [CBK264666], the “% of control remaining” value is recorded as 109.78.

For `CC(C)NC(=O)C[C@@H]1c2nc(-c3ccccc3)sc2C[C@@H]2[C@](C)(CO)[C@H](O)CC[C@]21C` [CBK289570], the “% of control remaining” value was determined as 104.165.

For `Sc1nnc(-c2ccncc2)n1CCc1ccccc1` [CBK265819], the “% of control remaining” value was determined as 99.7016.

For the compound `O=C(NCCN1CCC(O)(c2ccc(F)cc2)CC1)C1CCCCC1` [CBK283165], the “% of control remaining” value is recorded as 102.306.

`Cc1cccc(OCC2CCCN(C(=O)c3cn(C)cn3)C2)c1` (centres unmarked) [CBK307021]: the “% of control remaining” value is reported as 86.9518.

Regarding `COCCC(=O)N1C[C@@H]2C[C@H](C1)c1ccc(NC(=O)Nc3cccc(F)c3)c(=O)n1C2` [CBK289075], the “% of control remaining” value worked out at 111.66.

For the compound `CCOC(=O)C(NC(=O)C1CCC(=O)N1)c1cccc(C)c1C` (centres unmarked) [CBK305472], the “% of control remaining” value is listed as 24.3145.

For the compound `Nc1nc(CCN2CCOCC2=O)cs1` [CBK003792], the “% of control remaining” value turned out to be 84.3108.

For the compound `COCCNc1nc(-c2ccccc2)ccc1C(=O)Nc1cccc(OC)c1` [CBK105886], the “% of control remaining” value is 116.595.

As to `COCCNC(=O)c1ccc(-n2ccnc2)c(-n2cccc2)c1` [CBK285369], the “% of control remaining” value turned out to be 106.763.

Regarding `CC(C)COC(=O)N1CCC2(CC1)CC(=O)N(Cc1ccc(S(C)(=O)=O)cc1)C2=O` [CBK155948], the “% of control remaining” value is given as 76.4218.

`CCOC(=O)CSc1nnc(NS(=O)(=O)c2cccc(Cl)c2C)s1` [CBK004669]: the “% of control remaining” value was determined as 73.0622.

Turning to `CCOCCn1nc(C)cc1C(=O)NC(CC)c1cn2cccnc2n1` (centres unmarked) [CBK307377], the “% of control remaining” value is given as 61.606.

Consider `O=C1N/C(=N/N=C/c2ccc(O)cc2)SC1Cc1ccccc1[N+](=O)[O-]` (centres unmarked) [CBK261684], for which the “% of control remaining” value stood at 110.711.

`COc1nc(NCCN2CCOCC2)nc(Nc2ccc(Cl)cc2)n1` [CBK262541]: the “% of control remaining” value was 93.0705.

As for `O=C(c1cccc(C(F)(F)F)c1)N1CCCC2(CCN(Cc3ccccc3)C2)C1` (centres unmarked) [CBK137039], the “% of control remaining” value worked out at 88.8013.

For `O=C(NC1CC1)c1ccsc1NC(=O)C1C2C=CC(C2)C1C(=O)O` (centres unmarked) [CBK270322], the “% of control remaining” value worked out at 98.4709.

In the case of `CS(=O)(=O)N1CCN(c2ccccc2NC(=O)COc2ccccc2Cl)CC1` [CBK269250], the “% of control remaining” value was 87.3435.

With `Cc1ccc(-c2csc3nc(SCC(=O)NCC4CCCO4)n(-c4ccccc4)c(=O)c23)cc1` (centres unmarked) [CBK265610], the “% of control remaining” value is reported as 99.0838.

In the case of `O=C(COc1ccccc1)C(C(=O)c1ccccc1)=C1Nc2ccccc2N1` [CBK263725], the “% of control remaining” value was 111.715.

On to `C=CCC1(CC=C)CCN1C(=O)c1cccc(N2CCCC2=O)c1` [CBK282709], for which the “% of control remaining” value is 112.114.

On to `CCc1ccc(-c2cc3c(=O)[nH]nc(S)n3n2)cc1` [CBK288485], for which the “% of control remaining” value worked out at 76.2298.

`O=C(CSc1nnc(-c2ccncc2)n1-c1ccccc1)Nc1ccc([N+](=O)[O-])cc1` [CBK266620]: the “% of control remaining” value amounted to 121.567.

For `Cc1ccc(S(=O)(=O)Nc2ccc3c(ccn3CCOC3CCN(C(=O)OC(C)(C)C)CC3)c2)cc1Cl` [CBK172991], the “% of control remaining” value came to 69.4658.

Consider `CCCC/C=C/c1cncc(Nc2ccccc2)n1` [CBK037942], for which the “% of control remaining” value came out at 75.6693.

Regarding `CCC(SC1=NCCS1)C(=O)Nc1ccc(S(N)(=O)=O)cc1` (centres unmarked) [CBK263027], the “% of control remaining” value is 106.249.

For `COC(=O)c1ccc(NC(=O)COn2nnc3ccc([N+](=O)[O-])cc32)cc1` [CBK267106], the “% of control remaining” value is recorded as 118.847.

`COc1ccc(N(C(C)C(=O)N/N=C(\C)c2ccccc2O)S(C)(=O)=O)cc1` (centres unmarked) [CBK262402]: the “% of control remaining” value was 94.5027.

In the case of `COc1ccc(CN2C(=O)COC[C@@H]2[C@H](O)c2ccc(NC(=O)c3ccc(OC)cc3)cc2)cc1` [CBK289675], the “% of control remaining” value turned out to be 105.628.

For the compound `O=C(Nc1cccc(N2CCNCC2)c1)C1CCCO1` (centres unmarked) [CBK004768T], the “% of control remaining” value is reported as 96.9342.

Consider `O=[N+]([O-])c1ccc(N2CCNCC2)cc1NCCO` [CBK262851], for which the “% of control remaining” value stood at 102.101.

In the case of `CN(CC(=O)O/N=C(\N)c1ccccn1)S(=O)(=O)c1ccc(Br)cc1` [CBK268617], the “% of control remaining” value is recorded as 127.874.

As to `O=C(NCc1ccncc1)C1CC1c1ccccc1` (centres unmarked) [CBK288242], the “% of control remaining” value is reported as 107.744.

With `O=[N+]([O-])c1cccc(S(=O)(=O)NCCSc2ccccc2)c1` [CBK267862], the “% of control remaining” value was 110.657.

Consider `O=C1CCC2(CCN1)CCN(Cc1cccc(-c3ccco3)c1)CC2` [CBK307264], for which the “% of control remaining” value stood at 41.5635.

In the case of `CCN1C(=O)c2cccc3c(S(=O)(=O)Nc4cccc(C(=O)O)c4)ccc1c23` [CBK299838], the “% of control remaining” value amounted to 121.075.

For `CCc1noc(C)c1C(=O)N1CC[C@@H](CNC(=O)N2CCCC2)[C@H](O)C1` [CBK307222], the “% of control remaining” value was 85.5375.

As to `Cn1c(=O)oc2cc(S(=O)(=O)NCCC(=O)O)ccc21` [CBK267567], the “% of control remaining” value was found to be 98.7161.

As to `Fc1ccc(CCN2CCC(Oc3nccnc3OCCN3CCOCC3)CC2)cc1` [CBK082937T], the “% of control remaining” value came out at 83.3608.

For `Cc1csc2nc(-c3ccccc3)cn12` [CBK098072], the “% of control remaining” value is recorded as 61.8168.

As to `Cc1cccc(OCc2nnc(SCC(=O)Nc3cc(C(F)(F)F)ccc3Cl)o2)c1C` [CBK267204], the “% of control remaining” value was determined as 109.264.

For `Cc1cc(CNC(=O)COc2ccc(C#N)cc2)c2ccccc2n1` [CBK270129], the “% of control remaining” value turned out to be 118.318.

For the compound `O=C(Cc1cccs1)N1CCC(c2cc3ncccc3[nH]2)CC1` [CBK283393], the “% of control remaining” value is 94.453.

Consider `O=C(O)COc1ccc(Br)cc1/C=C\c1nc(O)c([N+](=O)[O-])c(=O)[nH]1` [CBK267223], for which the “% of control remaining” value is 115.378.

For the compound `COc1cc(Cl)c(C)cc1NC(=O)c1ncn(-c2ccccc2)n1` [CBK269456], the “% of control remaining” value was found to be 81.5277.

`O=C(CSc1nc2cccnc2[nH]1)Nc1cc(Cl)ccc1Cl` [CBK264644]: the “% of control remaining” value came to 119.14.

Consider `COCCCNC(=S)Nc1ccc(N2CCOCC2)c2nonc12` [CBK266947], for which the “% of control remaining” value came to 91.2339.

Turning to `C/C(=N\NC(=O)CSc1nc2ccccc2n1Cc1ccccc1)c1ccco1` [CBK263180], the “% of control remaining” value was determined as 65.0254.

In the case of `CCn1cc(S(=O)(=O)NC2(c3ccc(F)cc3)CC2)cn1` [CBK282801], the “% of control remaining” value came to 77.1577.

As to `COc1ccc(CCC(=O)Nc2ccccc2N2CCCNCC2)cc1` [CBK024286T], the “% of control remaining” value was determined as 104.892.

In the case of `Cc1nnsc1C(=O)Nc1ncn(CC(=O)N2CCCCCC2)n1` [CBK305522], the “% of control remaining” value was 16.3066.

For `Cc1c(C(=O)O)sc(S(=O)(=O)N2CCN(C(=O)CCc3cccs3)CC2)c1C(=O)O` [CBK297135], the “% of control remaining” value is recorded as 82.2794.

`Cn1ccc(C(=O)NC(Cc2ccsc2)c2cccnc2)n1` (centres unmarked) [CBK285117]: the “% of control remaining” value is 79.587.

In the case of `Cc1cc(NC(=O)c2cccc(N3C(=O)CCC3=O)c2)no1` [CBK287352], the “% of control remaining” value was 93.3983.

On to `Cc1onc(-c2c(Cl)cccc2Cl)c1N(C)C(=O)N1CCCCC1` [CBK086555], for which the “% of control remaining” value is recorded as 107.765.

For `Cc1occc1-c1nnc(SCC(=O)Nc2c(C)n(C)n(-c3ccccc3)c2=O)o1` [CBK269042], the “% of control remaining” value is 85.5869.

Turning to `CCN(CC(C)C#N)C(=O)c1nnn(-c2ccc3ncccc3c2)c1C` (centres unmarked) [CBK305292], the “% of control remaining” value was 86.9998.

For `NCc1ccc(CN(Cc2ccc(-c3ccccc3)cc2)C(=O)Nc2c(F)cccc2F)cc1` [CBK046115C], the “% of control remaining” value is 50.3485.

Take `CC(C)(C)Cc1ccc(CC(=O)O)c(OCc2ccccc2)n1` [CBK012508]: the “% of control remaining” value was found to be 101.834.

Turning to `COc1cccc(CC(=O)Nc2ccc3c(C)cc(C)nc3n2)c1` [CBK287992], the “% of control remaining” value was found to be 109.025.

Turning to `COc1ccc(C(=O)CN2CCN(CCN3C(=O)c4cccc5cccc(c45)C3=O)CC2)cc1` [CBK074628], the “% of control remaining” value is listed as 91.039.

With `Cc1cnn(CC(=O)N2CCC(c3cc4ncccc4[nH]3)CC2)c1` [CBK284458], the “% of control remaining” value turned out to be 111.263.

Turning to `COc1ccc2c(c1)OC1(CCN(C(=O)c3cc(OC)c(C)c(OC)c3)CC1)NC2=O` [CBK166244], the “% of control remaining” value worked out at 104.166.

Turning to `CCn1cc(C(=O)O)c(=O)c2cc(F)c(N3CCN(C(=O)c4ccc(C)cc4)CC3)cc21` [CBK286986], the “% of control remaining” value stood at 75.5454.

`CC(C)(C)OC(=O)N1CCN(c2ccc([N+](=O)[O-])cn2)CC1` [CBK000134]: the “% of control remaining” value is recorded as 72.0066.

In the case of `CC(CCCC(C)(C)O)CC1OCCC(C)O1` (centres unmarked) [CBK019986], the “% of control remaining” value came to 24.7511.

`COc1cccc(NC(=O)N2CCN3C(=O)[C@H](CC4CCCCC4)NC(=O)[C@H]3C2)c1` [CBK289615]: the “% of control remaining” value stood at 99.1778.
